Source: PubChem BioAssay AID463173 (ICCB-Longwood Screening Facility, Harvard Medical School, 2010)
Hit rate of the full screen: of about 52,000 compounds, about 4,300 (8.3%) were called active. Cut-off read from the data, not from the text of the source: active = survival mostly below about 52% (no sharp cut-off); inactive = mostly above about 56%. This is one part of the list.

tested on: DeltatarO mutant; test: S. aureus survival, RN4220 and DeltatarO strains – OD600, teichoic acid synthesis inhibitors, primary screen (AID 463173); settings: S. aureus RN4220 wild type/DeltatarO growth, OD600, 18 h, active compounds read low, screened at 18.75 µg/mL (by protocol)

| SMILES | survival |
| --- | --- |
| O=C(Nc1nc2n(n1)C(c1ccc(Cl)cc1)C=C(c1ccccc1)N2)c1ccco1 (configuration not stated) | active: 35% |
| Cc1nn(C)c2c1c(C(F)(F)F)cc(=O)n2C(C)C(=O)NCCc1ccccc1 (configuration not stated) | inactive: 75% |
| COc1ccc(CCNC(c2ccc(F)cc2)c2nnc(-c3ccccc3Cl)o2)cc1OC (configuration not stated) | inactive: 57% |
| COCC(=O)N(CC1CCCO1)c1nnc(C)s1 (configuration not stated) | inactive: 83% |
| COc1ccc(-c2c3c(=O)n(C)c(=O)n(C)c3c3n2-c2ccccc2NC3c2ccc(O)cc2O)cc1 (configuration not stated) | active: 0% |
| COc1ccc2c(Sc3ccc(C)cc3)c(C(=O)NCCc3ccccc3)[nH]c2c1 | inactive: 91% |
| COc1ccc(N(CC(=O)Nc2cccc(C(C)=O)c2)S(=O)(=O)c2ccccc2)c(OC)c1 | active: 48% |
| Cc1cc(OCCCn2c(CCNC(=O)C3CCCCC3)nc3ccccc32)ccc1Cl | active: 4% |
| CCOc1ccc(C(=O)N(Cc2cc(OC)c(OC)c(OC)c2)c2ccccn2)cc1 | inactive: 80% |
| OCc1cnc(SCc2ccc(F)cc2)n1Cc1ccc(F)cc1 | inactive: 88% |
| O=C(CSc1nc(-c2cccs2)nc2cc(=O)[nH]n12)Nc1cccc(C(F)(F)F)c1 | inactive: 94% |
| O=C(c1ccc2c(c1)N(Cc1c(F)cccc1Cl)C(=O)c1ccccc1S2)N1CCOCC1 | inactive: 94% |
| CCc1cccc(NC(=O)C2Cc3ccccc3N2C(=O)c2ccccc2)c1 (configuration not stated) | inactive: 107% |
| Cc1ccc2c(c1)c(CC(=O)Nc1ccc(C)c(F)c1)c(C(=O)O)n2C | inactive: 58% |
| Cc1ccc2nc(COc3ccccc3NC(=O)c3ccccc3F)cc(=O)n2c1 | inactive: 85% |
| CCOc1cccc(C2c3[nH]c4ccccc4c3CCN2C(=O)CSCc2ccc(F)cc2)c1 (configuration not stated) | inactive: 79% |
| COc1ccc(OC)c(NC(=O)CSc2ncc3c(n2)-c2ccccc2N(C)S3(=O)=O)c1 | inactive: 94% |
| O=C(C1COc2ccccc2O1)N(Cc1cccnc1)c1nc2c(Cl)cccc2s1 (configuration not stated) | inactive: 79% |
| NC(=O)Cn1c(=O)n(CCCCCC(=O)NCc2ccc(F)cc2)c(=O)c2sccc21 | inactive: 75% |

| SMILES | survival |
| --- | --- |
| CCOC(=O)N1CCN(Cc2nc3cc(NC(=O)C(C)C)ccc3n2C(C)C)CC1 | inactive: 68% |
| CCCNC(=O)c1ccc(-c2nc(CS(=O)(=O)c3ccc(C)cc3)c(C)o2)cc1 | inactive: 65% |
| COc1ccccc1N(CC(=O)Nc1ccc2c(c1)OCO2)S(=O)(=O)c1ccc(C)cc1 | inactive: 79% |
| O=C(c1ccc(F)cc1)N1CCC(c2nc(-c3ccc(S(=O)(=O)N4CCCC4)cc3)no2)CC1 | inactive: 92% |
| NC(=O)CSc1nnc(Cn2cnc3ccccc32)o1 | inactive: 79% |
| O=C(CN1c2ccccc2S(=O)(=O)c2ccccc21)Nc1ccccc1Cl | inactive: 57% |
| O=C(Cn1cnc2onc(-c3ccc(F)cc3)c2c1=O)Nc1ccc(F)c(Cl)c1 | inactive: 84% |
| CCc1nn(CC(=O)NCCCN2CCN(CC)CC2)c(=O)c2cc3occc3n12 | inactive: 127% |
| CCOc1ccc(S(=O)(=O)c2cn(Cc3ccccc3C)c3ccc(OC)cc3c2=O)cc1 | inactive: 64% |
| O=C(O)CCC(=O)Nc1nc(-c2ccccc2)cs1 | inactive: 85% |
| CCCOc1ccc(-c2nonc2NC(=O)c2oc3ccc(Cl)cc3c2C)cc1OCCC | inactive: 48% |
| N#C/C(=C\c1cccnc1)C(=O)Nc1ccccc1 | inactive: 56% |
| CCCCOc1ccc(Cn2c(=O)oc3ccc(C)cc32)cc1 | active: 40% |
| C=CCN1C(=O)/C(=C2/SC(C)=C(C)N2CC)SC1=Nc1c(C)n[nH]c1C | inactive: 108% |
| O=C(Nc1ccc(N2CCN(c3ccc(F)cc3)CC2)c(C(=O)O)c1)c1ccccc1F | inactive: 95% |
| COc1ccc(C)cc1NC(=O)C1CCN(S(=O)(=O)c2ccc3c(c2)CCCN3C(C)=O)CC1 | inactive: 77% |
| CC1=C(C(=O)Nc2cccnc2)C(c2ccccc2)n2nc(SCc3ccccc3Cl)nc2N1 (configuration not stated) | inactive: 169% |
| COC(=O)c1cc(S(=O)(=O)NCC2CCN(Cc3ccc(F)cc3)CC2)c[nH]1 | inactive: 77% |
| COCCNC(=O)CSc1nc2cc3c(cc2c(=O)n1CCCC(=O)NCc1ccc(OC)cc1)OCO3 | inactive: 84% |

| SMILES | survival |
| --- | --- |
| CCSc1ncc(Cl)c(C(=O)N(Cc2ccc(N(C)C)cc2)Cc2ccco2)n1 | inactive: 104% |
| COc1ccc(S(=O)(=O)N2CCN(c3ccc(Cl)c(Cl)c3)CC2)c2ccccc12 | inactive: 164% |
| COCCNC(=O)c1ccc2c(c1)N(Cc1cc(C)ccc1C)C(=O)c1ccccc1S2(=O)=O | inactive: 68% |
| Cc1cccc(NC(=O)c2cc(-c3ccc4c(c3)OCCO4)on2)c1 | inactive: 69% |
| Cc1ccc(NC(=O)CSc2nc3ccccc3nc2Cc2ccccc2)c(C)c1 | inactive: 124% |
| Cc1cc(NCc2ccccc2Cl)n2cnnc2n1 | inactive: 85% |
| CCOc1ccc(Cn2c(-c3ccc(OCC)c(OC)c3)nc3ccccc32)cc1OC | inactive: 79% |
| Cc1cccc(-c2nnn3c2nc(NCCc2ccc(S(N)(=O)=O)cc2)c2ccccc23)c1 | inactive: 101% |
| Cc1cc(NC(=O)CSc2nnc(-c3cccs3)n2C)no1 | inactive: 83% |
| CCCN(CCC)CCNC(=O)Cn1cc2c(n1)-c1c(oc(C(=O)N3CCCC3)c1C)CC2 | inactive: 111% |
| CC(=O)N(CCc1ccccc1)Cc1nc2ccccc2c(=O)[nH]1 | inactive: 89% |
| N=c1nc(SCCC(=O)O)ss1 | inactive: 79% |
| O=C(CS(=O)(=O)c1cccc2nsnc12)Nc1ccc(F)cc1 | inactive: 97% |
| Cc1nc(NC2CCN(Cc3nnnn3Cc3ccc4c(c3)OCO4)CC2)[nH]c(=O)c1C | inactive: 94% |
| Cc1ccc(NCC(=O)N/N=C/c2ccncc2)cc1 | inactive: 108% |
| COC(=O)c1ccc2c(c1)N(Cc1cc(C)ccc1C)C(=O)c1ccccc1S2 | inactive: 67% |
| CCN1CCc2nc3sc(C(=O)c4ccccc4)c(N)c3cc2C1 | inactive: 47% |
| CCN(c1ccccc1)S(=O)(=O)c1nnc(NC(=O)C(C)(C)C)s1 | inactive: 49% |
| CC(CNC(=O)c1ccc(CSc2nc3ccncc3n2Cc2ccc(F)cc2)cc1)c1ccccc1 (configuration not stated) | inactive: 77% |
